The other results are listed elsewhere or left out.
test system: HepG2; test: cytotoxicity call (relative viability < 0.9); details: 10 µM

| SMILES | cytotoxicity call |
| --- | --- |
| Cc1noc(C)c1S(=O)(=O)N(C)C[C@H]1Oc2ccc(NC(=O)CCCN(C)C)cc2C(=O)N([C@H](C)CO)C[C@H]1C | inactive |
| NCCc1ccc(O)c(O)c1 | inactive |
| CO[C@H]1CN(C)C(=O)c2cc(NS(C)(=O)=O)ccc2OC[C@@H](C)N(C(=O)CN(C)C)C[C@H]1C | inactive |
| C[C@@H]1CCCCO[C@H](CN(C)C(=O)Nc2ccc3c(c2)OCO3)[C@H](C)CN([C@H](C)CO)C(=O)c2cc(NS(=O)(=O)c3ccc(F)cc3)ccc2O1 | inactive |
| C[C@H]1CN([C@@H](C)CO)C(=O)c2cccc(NC(=O)Nc3ccc(C(F)(F)F)cc3)c2O[C@@H]1CN(C)S(=O)(=O)c1ccc(Cl)cc1 | inactive |
| COc1ccc(S(=O)(=O)Nc2cccc3c2O[C@@H](CN(C)S(=O)(=O)c2c(C)noc2C)[C@H](C)CN([C@@H](C)CO)C3=O)cc1 | inactive |
| C[C@@H]1CCCCO[C@@H](CN(C)S(=O)(=O)c2cn(C)cn2)[C@@H](C)CN([C@@H](C)CO)C(=O)c2cc(NS(C)(=O)=O)ccc2O1 | inactive |
| COc1ccc2c(c1)OCC(Cc1ccc(OC)c(OC)c1)C2=O (stereo not given) | active |
| C[C@H](CO)N1C[C@H](C)[C@H](CN(C)S(=O)(=O)c2cn(C)cn2)Oc2c(NC(=O)c3ccc(-c4nccs4)cc3)cccc2C1=O | inactive |
| C[C@H](CO)N1C[C@H](C)[C@@H](CN(C)Cc2ccc3c(c2)OCO3)Oc2ccc(NS(C)(=O)=O)cc2CC1=O | inactive |
| CN1C(C)(C)CCCC1(C)C | inactive |
| CC(=O)N/C=C1\C(=O)N(C)C(=O)C(C#N)=C1C | inactive |
| C[C@@H]1CCCCO[C@@H](CN(C)C(=O)c2ccccc2)[C@@H](C)CN([C@H](C)CO)C(=O)c2cc(NC(=O)Nc3ccc4c(c3)OCO4)ccc2O1 | inactive |
| NS(=O)(=O)Cc1ccccc1F | inactive |
| C[C@H]1CN([C@@H](C)CO)C(=O)c2cc(C#Cc3ccccc3F)cnc2O[C@@H]1CN(C)C(=O)Cc1cccnc1 | inactive |
| C[C@H]1CN([C@@H](C)CO)C(=O)c2cc(NS(=O)(=O)c3ccc(Cl)cc3)ccc2O[C@@H]1CN(C)Cc1ccc(C(=O)Nc2ccccc2N)cc1 | inactive |
| COC1=C2C[C@@H](C)C[C@H](OC)[C@H](O)[C@@H](C)/C=C(\C)[C@H](OC(N)=O)[C@@H](OC)/C=C/C=C(\C)C(=O)NC(=CC1=O)C2=O | active |
| N#CC1(C#N)[C@H](c2ccccc2)[C@@H]1C(N)=O | inactive |
| C[C@H]1CN([C@@H](C)CO)C(=O)c2cccc(NC(=O)C3CCCCC3)c2O[C@H]1CN(C)C(=O)Nc1cccc2ccccc12 | inactive |
| C[C@@H]1CN([C@H](C)CO)C(=O)Cc2cc(NS(C)(=O)=O)ccc2O[C@H]1CN(C)C(=O)Nc1ccc(F)cc1 | inactive |

| SMILES | cytotoxicity call |
| --- | --- |
| CN(C)CCCNC(=O)C[C@@H]1CC[C@@H]2[C@H](COC[C@@H](O)CN2S(=O)(=O)c2ccccc2)O1 | inactive |
| CO[C@H]1O[C@H](CO)[C@@H](OC(=O)Nc2ccc(Br)cc2)[C@@H]2OC(=O)[C@H](Cc3cccc(Br)c3)C/C=C/C[C@@H](Cc3cccc(Br)c3)C(=O)O[C@@H]12 | inactive |
| C[C@H]1CN([C@@H](C)CO)S(=O)(=O)c2ccc(-c3ccc(C#N)cc3)cc2O[C@H]1CN(C)C(=O)CN(C)C | inactive |
| COc1cccc(S(=O)(=O)N(C)C[C@H]2OCc3cnnn3CCCC(=O)N([C@H](C)CO)C[C@@H]2C)c1 | inactive |
| C[C@H](CO)N1C[C@H](C)[C@H](CN(C)S(=O)(=O)c2ccc(F)cc2)Oc2c(NS(=O)(=O)c3cn(C)cn3)cccc2C1=O | inactive |
| Cc1noc(C)c1S(=O)(=O)Nc1ccc2c(c1)C(=O)N([C@H](C)CO)C[C@H](C)[C@H](CN(C)C(=O)Nc1ccc3c(c1)OCO3)O2 | inactive |
| C[C@H]1CN([C@@H](C)CO)C(=O)CCCn2cc(nn2)CO[C@H]1CN(C)S(=O)(=O)c1ccc2ccccc2c1 | inactive |
| C[C@@H]1CN([C@H](C)CO)C(=O)c2cc(C#CC3(O)CCCC3)cnc2O[C@H]1CN(C)C(=O)Cc1ccncc1 | inactive |
| Cc1ccc(S(=O)(=O)N2CCN(CC(=O)N/N=C/c3ccccn3)CC2)cc1 | inactive |
| C[C@H](CO)N1C[C@H](C)[C@H](CN(C)S(=O)(=O)c2ccc(C#N)cc2)Oc2ncc(-c3ccc(F)cc3)cc2C1=O | inactive |
| C=CC[C@H](CC(=O)N(CCO)Cc1ccccc1)C(=O)N[C@H](COC(=O)[C@@H](CC=C)Cc1ccc(F)cc1)C(C)(C)C | inactive |
| C[C@H]1CN([C@@H](C)CO)C(=O)c2cccc(NC(=O)C3CCOCC3)c2O[C@H]1CN(C)C(=O)Nc1ccccc1 | inactive |
| COc1ccc(C[C@H](N)C(=O)N[C@H]2[C@@H](O)[C@@H](n3cnc4c(N(C)C)ncnc43)O[C@@H]2CO)cc1 | active |
| C[C@H](CO)N1C[C@H](C)[C@@H](CN(C)Cc2ccccc2)OCCCC[C@H](C)Oc2ccc(NC(=O)Nc3ccc(F)cc3)cc2C1=O | active |
| C[C@@H]1CCCCO[C@@H](CN(C)C(=O)CCC(F)(F)F)[C@@H](C)CN([C@H](C)CO)C(=O)c2cc(NC(=O)NC3CCCCC3)ccc2O1 | inactive |
| Cl.Nc1c(Br)cc(Br)cc1CNC1CCC(O)CC1 (stereo not given) | inactive |
| C[C@H](C(=O)N(C)C[C@@H]1OCc2ccccc2-c2c(n(C)c3ccccc23)C(=O)N([C@@H](C)CO)C[C@H]1C)c1ccccc1 | inactive |
| Cc1nc(=O)c2c([nH]1)CCSC2 | inactive |
| C[C@H](CO)N1C[C@H](C)[C@H](CN(C)C(=O)Nc2ccccc2)Oc2ccc(NC(=O)CCCCCC(=O)Nc3ccccc3N)cc2CC1=O | inactive |
| COc1ccc2c3c([nH]c2c1)[C@H](CO)N(CC1CCCC1)C[C@]13CCN(CC1)C(=O)c1ccc(cc1)F | inactive |

Reference: the antibiotic and cytotoxicity screens of Wong et al. (2023)
